# The source gives no read counts; variants with many changes may rest on few reads.
# B1: LINE1-mini (parent)
# chain: GGCAGAGCUCAACACAGCGUGGCAAAGUGGCUGUGGCUAGACUGCC
# Variants of: B1
# Assay: self-cleavage, relative activity (ratio to wild type); higher = more cleavage; in vitro, sequencing; the parent is a self-cleaving ribozyme
row,Variant,self-cleavage
1,A25U C42G C45G,0.03
2,A26C G36A G40U C42A,0.02
3,A26C G30U C31U G35U G40A,0
4,A25U G33C C45U,0.03
5,G27C U34C C37A,0.14
6,G27C U28C G40A,0.05
7,G27A C31G C46A,0.03
8,A25U G33A G35A C42G C46G,0.07
9,G27A U38A C46G,0.32
10,G27C G36U U43G,0.04
11,G27U U34C G35U C37A,0.13
12,U28A G30U C31U,1.77
13,G27A G36C C45A,0.03
14,A26G U38A G44A,0.02
15,A26U G29C C42U C46G,0.03
16,G27U C31A U34C A39C,0.19
17,G27C C31G G36C U43G,0.01
18,G27A C37A C46U,0.08
19,G27A C37A C46G,0.12
20,G27U A39C G40A,0.03
21,A26G U43A G44U,0.16

row,Variant,self-cleavage
1,G27C U32A G35C,0.05
2,A26U U28C U34A,0.22
3,A26C C31U C42A U43G G44U,0.07
4,G27C G40U C46A,0.05
5,A25U U32A G36U,0.03
6,G27U U32A C45A,0.03
7,A26G U28A U34G,0.04
8,G27A G30U G40A,0.01
9,A26U G30A C31A,0.2
10,A26C U28C U32A,0
11,A26U A39U U43A G44U C45A,0.1
12,G27C G40A C46A,0.23
13,A26C G27U U38C,0.97
14,G27A U28C C31G,0.04
15,G27A A41G U43G,0.02
16,A26U C37U G40U,0.21
17,A26U C37U G40C,0.05
18,G27U A39C C42A,0.08
19,G27A C37G A41U,0.02
20,G27C G33C G44A,0.15
21,A26G G30U C42A G44A,0.06

row,Variant,self-cleavage
1,G27A G29C G40U,0.03
2,A26C C31G A41U,0.06
3,G27U G30A G35U C42A,0.09
4,G27U C31A G35C A39G,0.06
5,A26U C37A U38A A41U C45U,0.06
6,A25U C31A U32G G40C,0.04
7,G27U G36A U43C,0.08
8,A26C G29U C42U,0.21
9,A25U C37A A39U,0.11
10,G27C G29C A41C G44A,0.07
11,G27C C31G U38A,0.16
12,G27A C31G C37A G40A,0.09
13,A26G G30C G40A,0.17
14,A26G G27U U28A G29C,0.32
15,A26G C31U G40C,0.02
16,G27U U28G G29C A39C,0.05
17,G27A U28C G30C,0.66
18,G27U G29C C31A A41G,0.2
19,G27C G33A G44U,0.08
20,U28A G36A A39U C42A C46U,0.06
21,A26C G30U U34A C46A,0.02

row,Variant,self-cleavage
1,A26G C31U G33C,0.04
2,A25U G27C U32G U43C,0.03
3,G27U C31A C42A,0.03
4,A26G C45U C46G,0.12
5,A26C G35A C46G,0.06
6,A26C G30A C37G,0.01
7,A25U G27C C31U A39C,0.04
8,A25U G40U A41C G44A,0.03
9,U28A G33U U38A A39G,0.06
10,A25U G30C C46A,0.16
11,G27U A41U C46A,0.58
12,A26G C31U U32G C45G,0.07
13,A26U G33U C37A,0.07
14,G27A G30U U34C,0.16
15,A26C U28A C31A U32C C45G,0.02
16,A26C U38A G44A,0.07
17,A25U A26G A41C,0.02
18,G27C U28C G44A,0.35
19,U28A G30U G40A,0.05
20,G27U U34C C37U,0.04
21,A26U G27A G36A,0.22

# Source: the RNAGym collection of RNA variant scans (doi:10.7554/elife.90254)
